This note sets out measurements from paper PMC7819943, “Rice protein-binding microarrays: a tool to detect cis-acting elements near promoter regions in rice”.

The other results are listed elsewhere or left out.

In this assay the target is T1, OsWOX13 (Oryza sativa, UniProt Q5QMM3 1-267).
T1 sequence: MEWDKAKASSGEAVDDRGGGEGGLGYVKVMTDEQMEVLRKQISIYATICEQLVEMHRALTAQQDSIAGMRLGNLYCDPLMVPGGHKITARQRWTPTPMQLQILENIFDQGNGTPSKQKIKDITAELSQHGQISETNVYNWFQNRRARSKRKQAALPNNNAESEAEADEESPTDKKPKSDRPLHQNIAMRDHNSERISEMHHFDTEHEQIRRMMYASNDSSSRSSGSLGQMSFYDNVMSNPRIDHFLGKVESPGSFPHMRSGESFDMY
Briefly: protein-binding microarray (RPBM); PBS, 2% BSA, 51.3 ng/ul salmon testes DNA, 50 uM zinc acetate, 200 nM TF, 25 C, 1 h; high values mean tight binding. As to conditions: protein: recombinant; tags: N-terminal polyhistidine and DsRed monomer fusion (pET32a); label: CyDye5-dUTP incorporated in the synthesized complementary strand; 3' TTTTT single-stranded linker to array surface; dsDNA, one strand shown. The method, boiled down:
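Per-feature fluorescence intensity (arbitrary units), read on an Axon 4000B scanner, is the binding signal. Transcription factors carrying an N-terminal polyhistidine tag and DsRed fusion were expressed in E. coli BL21-CodonPlus and purified on Ni–NTA. A custom Agilent array, made double-stranded by primer extension with Cy5-dUTP and blocked with 2% BSA, was incubated with 200 nM protein in PBS, 2% BSA, salmon testes DNA and 50 µM zinc acetate at 25 °C for 1 h and then washed.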
Consider “TTGTTAAATTGAAAAGTGTAATAGAAAGGTTGTTGACGTGCGGAGTCACCTAGTGCAG”, for which the binding signal is 40200 fluorescence intensity (a.u.).
Turning to “GTTAATTAGCTGGAGTAGTTTGTTCAGTCACTCCACTATACGGAGTCACCTAGTGCAG”, the binding signal is 35600 fluorescence intensity (a.u.).
“ATATCACGGCTAATTATCCCAAAATTAATTCAAAACGAGTCGGAGTCACCTAGTGCAG”: the binding signal was 10800 fluorescence intensity (a.u.).
“CTTTAATTGAAAGTGGCATTTTAACGAGGCCCACTCCCAGCGGAGTCACCTAGTGCAG”: the binding signal was 45700 fluorescence intensity (a.u.).
Regarding “ACTGTTAAATTAAGTAGGAGCACTGTGTGTGATCTTTTGGCGGAGTCACCTAGTGCAG”, the binding signal is 3720 fluorescence intensity (a.u.).
Next, “TCATTTCATAATTAATTTCCACCATACAGCCTGGAGGTTACGGAGTCACCTAGTGCAG”: 13900 fluorescence intensity (a.u.).
On to “TTGAAATTGAAGATGATGTGACTGAAAAGTTGCGTGTGTACGGAGTCACCTAGTGCAG”, for which the binding signal is 31900 fluorescence intensity (a.u.).
The value for “GTCAACCAATGATTGCTACTTCCCTATGCACGTATTGTATCGGAGTCACCTAGTGCAG” was 25200 fluorescence intensity (a.u.); that for “AGTTCTCTGATTTTGGATGGGGATTTGCTTGATGGATCCGCGGAGTCACCTAGTGCAG” was 7130 ± 903 fluorescence intensity (a.u.); that for “GCAAATATAAGATTGCTTCAAGATTTGTGCTCTGACCCACCGGAGTCACCTAGTGCAG” was 3240 fluorescence intensity (a.u.).
In the case of “ATTAATAAATTAGAATTATATTCTTATGGTTTATATGGACCGGAGTCACCTAGTGCAG”, the binding signal was 29800 fluorescence intensity (a.u.).
The value for “TTTGATTTGATTTGATTTGATTGAATTAATTTGAGTCCGACGGAGTCACCTAGTGCAG” was 65400 fluorescence intensity (a.u.).
Next, “CACCATCAATTCCATATAAACTGGACTAGAGCTATTACCTCGGAGTCACCTAGTGCAG”: 5700 fluorescence intensity (a.u.).
With “TTCGGATTGATTGTTGAGACAAATCTCGTAGAACACGGAACGGAGTCACCTAGTGCAG”, the binding signal is 62900 fluorescence intensity (a.u.).
The value for “ATGTCTATCAACCCTTTATTTATGTTATTGTTCATGTTTGCGGAGTCACCTAGTGCAG” was 4160 fluorescence intensity (a.u.); that for “GTAACGGGATGATTGAAGCTACAACGAGAATGGCAACGTCCGGAGTCACCTAGTGCAG” was 22200 fluorescence intensity (a.u.).
The value for “CTCCTTAATCACAATTTAACAAACTCGAGGGGCTAAAACGCGGAGTCACCTAGTGCAG” was 18200 fluorescence intensity (a.u.); that for “CATAATTAACATACTCCTCCATCCCACAATATAAGGGATTCGGAGTCACCTAGTGCAG” was 23900 fluorescence intensity (a.u.).
Take “TTGATTAAAATCTAATATCAACATTTGCTCCAAATGTTCACGGAGTCACCTAGTGCAG”: the binding signal is 13800 fluorescence intensity (a.u.).
Next, “GATTTACATTGATTATGATGTTGGGATGTTTCATATTCAACGGAGTCACCTAGTGCAG”: 8900 fluorescence intensity (a.u.); “ATCTAATTTTGCTTATAGCTGCTGCTGATGCTTCATATTTCGGAGTCACCTAGTGCAG”: 3800 fluorescence intensity (a.u.); “ATTAATTATGTCATAAACTGTTGTTGATTTGTGCCAGTTTCGGAGTCACCTAGTGCAG”: 39500 fluorescence intensity (a.u.).
The value for “AGAATCAGGGACTTAATTTGCAATTAGTAATTTAAAACAGCGGAGTCACCTAGTGCAG” was 14800 fluorescence intensity (a.u.); that for “TTCAAATTGTGATCAGCTTCCAAGTTCCAACCCATCCCCTCGGAGTCACCTAGTGCAG” was 6680 fluorescence intensity (a.u.); that for “GATGATTGACTTATTATGCTATAATAATATGCTGAATGAACGGAGTCACCTAGTGCAG” was 40600 fluorescence intensity (a.u.).
Consider “ACTGATAATCTATTTGTTAGTAAAAGATTTTGACGTACTACGGAGTCACCTAGTGCAG”, for which the binding signal was 7590 fluorescence intensity (a.u.).
The value for “ATTTCTCATCAAATTGGTTCTTATTGATCAAACTATAGTTCGGAGTCACCTAGTGCAG” was 4740 fluorescence intensity (a.u.).
Regarding “TTAATAAATCTAGACTAATTTATTAATATCAATATAAATGCGGAGTCACCTAGTGCAG”, the binding signal is 16000 fluorescence intensity (a.u.).
Next, “CATTAATTGTGATACAGTACGTATAACTTTGTCAAAGCTACGGAGTCACCTAGTGCAG”: 46400 fluorescence intensity (a.u.); “ACCAATTAACTGCCATTACTAAGGAACTACTCTCTCTATTCGGAGTCACCTAGTGCAG”: 21100 fluorescence intensity (a.u.).
The value for “TATAAATAATAAATCATCAATATGAATATAACCAATGCTACGGAGTCACCTAGTGCAG” was 5400 fluorescence intensity (a.u.); that for “TATTTAATTAGGTTAATGACCTTGGACTCCCATTGAGTATCGGAGTCACCTAGTGCAG” was 32600 fluorescence intensity (a.u.); that for “ATTTGCACAATCATGTGATGATTTGCAAATTTGCATACCGCGGAGTCACCTAGTGCAG” was 32400 fluorescence intensity (a.u.).
For “ATGAACGGTTAATTTGAATGAAATTCATTTCGGATTGCAGCGGAGTCACCTAGTGCAG”, the binding signal is 11100 fluorescence intensity (a.u.).
The value for “GGCAAATTGTCAAGGTTAACCGTAAATCTACAGTGCCAATCGGAGTCACCTAGTGCAG” was 15500 fluorescence intensity (a.u.).
Next, “ATTTAAATCTTTATAACAAATTATAAGTGATATGAAGATACGGAGTCACCTAGTGCAG”: 4340 fluorescence intensity (a.u.); “TCTGATTTTGAGAGGCTGTCAGAAATGCTCTTACAAGTTACGGAGTCACCTAGTGCAG”: 6820 fluorescence intensity (a.u.).
For the sequence “CGAGCTTTAATCAATTAATCTGGAGTTTAGTGAATATATTCGGAGTCACCTAGTGCAG”, the binding signal was 9200 fluorescence intensity (a.u.).
Next, “TTCTAATTAAATAATTATTATTTATCTTGTGTATATATATCGGAGTCACCTAGTGCAG”: 46500 fluorescence intensity (a.u.); “TGGCTAATTTTGAAGATGTAGATCACTCATGCGGCGGCACCGGAGTCACCTAGTGCAG”: 10000 fluorescence intensity (a.u.); “AACTGAGAGTATCTGATTGAAAATCTATACTGTTTGGGGACGGAGTCACCTAGTGCAG”: 21000 fluorescence intensity (a.u.).
Turning to “GATAATTTTATAGTAAGATAGGATTAGTGCGATGAATATTCGGAGTCACCTAGTGCAG”, the binding signal was 6510 fluorescence intensity (a.u.).
